About 930 (0.24%) of roughly 390,000 compounds were called active. The shares of active, inactive and inconclusive entries below differ from those in the screen. Calls come from the whole dose curve; as a rule, active = well fitted activation curve with a large enough effect; inconclusive = small, poorly fitted or top-dose-only effect; inactive = no such curve, though single readings can be large or run the other way. Potencies of inconclusive entries are doubtful fits and often do not repeat.
experiment: qHTS for Suppressors of FUS Proteinopathy: Primary screen using FUS-linked yeast assay; note: nearly all actives have a fitted effect of over 55% in size;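 for growth rescue (activation): plate controls were DMSO vehicle for no effect and reference control for full effect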; details: S. cerevisiae FUS-expressing, OD600, 24 h; Potency: growth rescue; growth rescue (activation): at 76.6 µM (top of the series)
Summary of the method: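 Cultures pregrown in 2.5% raffinose medium are shifted to minimal medium containing 2% galactose to express toxic FUS. Compounds are tested at several concentrations. After 24hr at 30C, growth is quantified at 600 nm absorbance.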
Potency is the fitted concentration of half-maximal effect; tags give direction and shape of the fitted curve.

Row | SMILES | Potency | growth rescue (activation)
1 | COc1ccc(C2CC(=O)C3=C(C2)NC(C)=C(C(=O)Nc2ccccc2C)C3c2coc3ccc(C)cc3c2=O)cc1OC (configuration not stated) | inconclusive: 12.6 µM [activator, partial curve] | 
2 | COc1cccc(/C=N/NC(N)=S)c1OS(=O)(=O)c1ccccc1 |  | inconclusive: 69.9% [activator]
3 | Cc1cc(-n2c(C)nc3ccccc3c2=O)ccc1NC(=O)c1ccc([N+](=O)[O-])cc1 | inactive | 
4 | CC(C)c1ccc(NC(=O)C2(C)Cc3c(-c4ccc5c(c4)OCO5)ccnc3O2)cc1 (configuration not stated) | inconclusive: 50.1 µM [activator, single point] | 
5 | CCCCc1ccc(NC(=S)N2CCCC2)cc1 | inactive | 
6 | Oc1ccc(/C=N\Nc2cc(N3CCOCC3)nc(N3CCOCC3)n2)c(O)c1 | inconclusive: 35.5 µM [activator, partial curve, poor fit] | 
7 | COc1ccc2[nH]c3c(=O)n(Cc4ccc(C(=O)N5CCC(C(N)=O)CC5)cc4)c(=S)[nH]c3c2c1 | inconclusive: 14.1 µM [activator, partial curve, poor fit] | 
8 | COc1ccccc1CNC(=O)C1CCN(S(=O)(=O)c2ccc3c(c2)CC(C)N3C(=O)C2CC2)CC1 (configuration not stated) | inconclusive: 15.8 µM [activator, single point] | 
9 | COc1ccc(S(=O)(=O)N2CCCCCC2)cc1C(=O)N(C)Cc1c(F)cccc1Cl | inconclusive: 44.7 µM [activator, single point] | 
10 | O=C1/C(=C/c2c[nH]c3ccccc23)CCC/C1=C\c1c[nH]c2ccccc12 | inactive | 
11 | COc1ccc(/C=C/C2=CC(C)(C)NC(=S)N2)cc1OC | inconclusive: 25.1 µM [activator, single point] | 
12 | CCCn1nc(C(=O)N2CCN(S(=O)(=O)c3ccc(C)c(C)c3)CC2)c2ccccc2c1=O | inconclusive: 8.91 µM [activator, partial curve] | 
13 | c1ccc(OCCn2c(COc3ccccc3)nc3ccccc32)cc1 | inactive | 
14 | CNS(=O)(=O)c1cccc(C(=O)OCC(=O)/C=C2/N(C)c3ccccc3C2(C)C)c1 | inconclusive: 3.98 µM [activator, full curve, poor fit] | 
15 | Cc1noc(C)c1COC(=O)c1ccccc1Sc1ccccc1C#N | inactive | 
16 | COc1ccc(NC(=O)CSc2nc3sc4c(c3c(=O)n2-c2ccc(OC)cc2)CCN(C)C4)cc1 | inconclusive: 35.5 µM [activator, partial curve] | 
17 | COc1ccc(Cc2nnc(NS(=O)(=O)c3ccc([N+](=O)[O-])cc3)s2)cc1 | inconclusive: 5.01 µM [activator, full curve, poor fit] | 
18 | COc1ccc(-c2nc3c(C)cc(Br)cn3c2Cc2cccc(Cl)c2)cc1OC | inconclusive: 25.1 µM [activator, partial curve] | 
19 | CC1=C(C(=O)N2CCOCC2)CC(CC(=O)NC(c2ccccc2)c2ccccc2)C(=O)N1Cc1ccc(F)cc1 (configuration not stated) | inconclusive: 50.1 µM [activator, single point] | 
20 | CC(=O)NC1CCCCN(Cc2ccc(Cl)cc2)C1=O (configuration not stated) | inactive | 
21 | CC(Oc1ccccc1)C(=O)N(CCC1=CCCCC1)c1c(N)n(Cc2ccccc2)c(=O)[nH]c1=O (configuration not stated) | inconclusive: 6.31 µM [activator, partial curve] | 

Row | SMILES | Potency | growth rescue (activation)
22 | Nc1c(C(=O)NCc2ccco2)nnn1CC(=O)Nc1ccccc1 | active: 39.8 µM | 
23 | COc1cccc(C2CC(c3cccs3)=NN2C(=O)CSC2=NCCS2)c1OC (configuration not stated) | inconclusive: 50.1 µM [activator, single point] | 
24 | Cc1ccccc1N1CCN(C(=O)CN2C(=O)CC(C)(C)S(=O)(=O)c3ccccc32)CC1 | inactive | 
25 | O=C(COC(=O)c1cccc(Br)c1)NC(=O)NC1CCCC1 | inconclusive: 44.7 µM [activator, partial curve, poor fit] | 
26 | Cc1ccccc1C(=O)c1cccn1CC(=O)NCc1cccc(Cl)c1 | inactive | 
27 | COc1ccc(CCN2C(=O)CN(C3CCC(C)CC3)C(=O)C2c2ccc(OC(C)C)c(OC)c2)cc1OC (configuration not stated) | inactive | 
28 | O=C(NCc1ccco1)c1cc2c(s1)CSC2 | inconclusive: 28.2 µM [activator, single point] | 
29 | CCOC(=O)c1ccc(NC(=O)c2ccc3c(c2)C(=O)N(Cc2cccnc2)C3=O)cc1 | inactive | 
30 | C=CC[C@@H](CC(=O)N(CCO)Cc1ccccc1)C(=O)NC[C@H](OC(=O)[C@@H](CC=C)Cc1ccc(F)cc1)c1ccccc1 | inconclusive: 28.2 µM [activator, single point] | 
31 | COc1ccc(-n2c(=S)[nH]c3cc(C(=O)N(C)Cc4ccccc4)ccc3c2=O)cc1 | inconclusive: 25.1 µM [activator, partial curve, poor fit] | 
32 | Cc1ccccc1C(=O)Nc1cccc(NC(=O)Cn2cnc3c(=O)n(C)c(=O)n(C)c32)c1 | inconclusive: 28.2 µM [activator, partial curve, poor fit] | 
33 | CS(=O)(=O)N1CCC(Oc2ccccc2C(=O)N2CCC[C@H]2CO)CC1 | inactive | 
34 | CSc1ccc(Cl)c(C(=O)OCC(=O)NCc2ccco2)c1 |  | inconclusive: 60.3% [activator]
35 | COc1cc(F)c(C2=CC(=O)C[C@H](c3ccc(F)cc3)C2)cc1F | inactive | 
36 | CC(C)c1ccc(OCc2cc(=O)n3c(-c4ccccc4)csc3n2)cc1 | inconclusive: 31.6 µM [activator, partial curve, poor fit] | 
37 | Cc1ccc(-n2c(C)cc(/C=C3\NC(=O)NC3=O)c2C)c(C)c1 | inconclusive: 25.1 µM [activator, partial curve] | 
38 | COC(=O)C1(C)CCCC2(C)c3cc(OC)ccc3C(=O)C(Br)C12 (configuration not stated) | inconclusive: 22.4 µM [activator, partial curve] | 
39 | COc1cc(-c2cc(OC)c3c(C)oc(C)c3c(=O)c2)ccc1OC(=O)c1cccc(Cl)c1 | inconclusive: 39.8 µM [activator, single point] | 
40 | O=C(O)CCC(=O)Nc1nc2ccccc2s1 | inactive | 
41 | Cc1cc2nncn2c2ccccc12 | inactive | 
42 | CCCOc1cccc(C(=O)Nc2ccc(-c3cc4ccccc4oc3=O)c(C)c2)c1 | inconclusive: 31.6 µM [activator, single point] | 

Reference: PubChem BioAssay AID1347120 (National Center for Advancing Translational Sciences (NCATS), 2019)
